Screen size: about 5,400 compounds; about 190 (3.5%) showed an effect of 50% or more. The list shows a part of the results. Non-standard residues stand in square brackets, D forms with d. Residues, ends and D or L forms follow the SMILES beside them. *: point of attachment. Sta = CC(C)C[C@H](N)[C@@H](O)CC(=O)O; Isovaleryl = CC(C)CC(=O)*

Results on 24 molecules are retold here after paper PMC13083723 (Patterns, 2026).

This experiment has as its system Vero-E6. The experiment is described as follows: primary screen, phospholipidosis by LipidTOX staining; higher = more effect of the substance. The conditions noted are these: 10 µM. How it is done: To measure drug-induced PLD in Vero-E6 cells, we used the HCS LipidTOX Red Phospholipidosis Detection Reagent (Invitrogen, #H34351), which is non-toxic to cell growth and remains well retained after aldehyde fixation. In this setup, compounds (at 10 μM concentration) and controls (amiodarone: 10 μM concentration; DMSO: 0.1 v/v %) were added to clear-bottom, 384-well plates (PhenoPlate 384-well, black, optically clear flat bottom, tissue-culture treated, Revvity #6057302) using the Echo Liquid Handler (Labcyte).
Take `CC(C)(C)c1ccc(-c2nc3ccccc3[nH]2)cc1`: the result_ITMP came out at 1.03%. The figure for `CC[C@@H](c1cccc(O)c1)[C@@H](C)CN(C)C` is -2.25%; for `Cc1nc(-c2cn3c(n2)-c2ccc(-c4cnn(C(C)(C)C(N)=O)c4)cc2OCC3)n(C(C)C)n1` it is -1.26%; for `O=C(/C=C/c1ccc(CN(CCO)CCc2c[nH]c3ccccc23)cc1)NO` it is -1.88%. The figure for `Nc1nc(NCCc2ccc(O)cc2)nc2nc(-c3ccco3)nn12` is -3.67%. The figure for `CCCCCCCCCCCC(=O)N(CCO)CCO` is -3.72%; for `COC(=O)c1ccc(O)cc1` it is -5.12%; for `COC(=O)N(C)c1c(N)nc(-c2nn(Cc3ccccc3F)c3ncccc23)nc1N` it is -4.67%. For the molecule `Cc1cccc(NC(=O)N[C@@H]2N=C(c3ccccc3)c3ccccc3N(C)C2=O)c1`, the result_ITMP is recorded as -4.61%. The figure for `c1ccc(C(NCc2cccnc2)(c2ccccc2)c2ccccc2)cc1` is -7.19%. For `Cc1cccc(C#Cc2ccccc2)n1` the value was -2.86%; for `N[C@H](C(=O)O)c1cc(O)cc(O)c1`, -1.33%; for `COC(=O)C1=C(C)NC(C)=C(C(=O)OCCSc2ccccc2)C1C` (stereo not drawn), -2.59%.

Consider `CN(C)C(=O)Oc1cc(OC(=O)N(C)C)cc(C(O)CNC(C)(C)C)c1` (stereo not drawn), for which the result_ITMP is on record as -6.07%. For `C[C@H](O)C(=O)Nc1c(I)c(C(=O)NC(CO)CO)c(I)c(C(=O)NC(CO)CO)c1I` the value was 0.49%. For `c1ccc(CCNc2nc(-c3ccccc3)cs2)cc1` the value was -3.35%; for `CC(C)CC(=O)N[C@H](C(=O)N[C@H](C(=O)N[C@@H](CC(C)C)[C@@H](O)CC(=O)N[C@@H](C)C(=O)N[C@@H](CC(C)C)[C@@H](O)CC(=O)O)C(C)C)C(C)C` (Isovaleryl-VV[Sta]A[Sta]-OH), -0.89%; for `CC1(C)CCC(C)(C)c2cc(C3(c4ccc5cc(C(=O)O)ccc5c4)SCCS3)ccc21`, -1.71%. The figure for `C[C@H](C(=O)O)c1ccc(-c2ccccc2)c(F)c1` is -2.74%; for `O=c1cc(O)c(Cl)c[nH]1` it is -6.34%; for `c1ccc(OCc2ccc(CCCN3CCOCC3)cc2)cc1` it is 14.3%. For the molecule `CCCCN(CCCC)C(=O)CN1C[C@H](c2ccc3c(c2)OCO3)[C@@H](C(=O)O)[C@@H]1c1ccc(OC)cc1`, the result_ITMP turned out to be 0.36%.

On to `O=C1CC2(CCCC2)CC(=O)N1CCCCN1CCN(c2ncccn2)CC1`, for which the result_ITMP is reported as -2.83%. On to `CC[C@H]1OC(=O)[C@H](C)[C@@H](O[C@H]2C[C@@](C)(OC)[C@@H](O)[C@H](C)O2)[C@H](C)[C@@H](O[C@@H]2O[C@H](C)C[C@H](N(C)C)[C@H]2O)[C@](C)(O)C[C@@H](C)[C@@H]2N[C@@H](COCCOC)O[C@H]([C@H]2C)[C@]1(C)O`, for which the result_ITMP came out at 3.41%.
